# Data from the supplement of paper PMC8728848.
# Some of the results follow.
# B1: Epa10 (protein)
# chain: MNEKIFRYLTLLFLFELARSLPVEDKLNIKKVFEKRAVDFTPFAHYPRPEGCSSPPNSVSVGLHMNLYNYPYLYVKPSTKGMFTNDTNSDADGETDGDSAGGIEGRAGQCWNPEYQDPNFPRFGYKQYGEFGASDNVNGDISWDHNEFTEGCKPVLAALPPGYNYPDEITFSNFTMVLSGYFKPKTSGVYKFELKADDFILFNFGAKNAFECCNREESIDNFGPYVAYAMWPNQADQELEVYLFEDSYYPLRLFYNNRDYHSKFKIGFYPPGQTTITFDFDGYLFMLDDTGNECRDSIRYRTVCDDKVVDDTTYSTRYSTSMVPGGGSDVITIYYIRMKCEEEDCLGQWDPINNVCYSPDDCADDGGYWNGQMCDQSCKLEGGIVNPDTGDCDKSCIESGGFLDENGNCDTTCRDDGGMLVEGQCDYQCKEAGGILVGDHCDTTCVDSGGKLNEDGTCDHSCRDQGGQLDENGECDTSCKDSGGMLIEGECDTSCKDEGGQLDDNNECINHCKDQGGIIDENGNCDTSCKDSGGKLDESGACDTSCRDDGGIIDENGNCNTTCRDDGGIIVGDHCDTSCRDAGGILIEDHCDTTCRDSGGKLNEDGTCDHSCRDQGGQLDENGKCDYSCKNGGGKLDEDGNCDMSCKENGGKLDENGDCDLSCKEDGGKLDGNGDCDYSCKEEGGVIDESGNCNTTCKDSGGQIIDGECNYGCIEVGGVVIDGECDTSCIDSGGILDGDGNCDRSCIESGGVLEDGACNTTCRDSGGQLNVDGTCDTSCRDDGGMLVEGQCDYQCKEAGGILEDGECVFPPTSSSTSETSSTTDQSSLQSDDSSMESSSTPMDSSTIESSSSEIITSESESESVPIASSSSEVMTSESESESIPILTSSSEIPIASSSSEIPVASSSSEIIIPESESESVPVASSSSEIPIASSSSEIPVASSSSEIPVASSSSEIIIPESESESIPIESTSSEAVSSRSESDSSYPTPTPTTTTITTWPNPIQPTTSNSSPIVSSSTETPGIAESSSRISDLESSRRTSILGDDRTRTRTTITSTITEDGQIITITTTVTGFVPEPTGETEGNGSDDENPENPIENNTDENEFLDPEFTDDIPDDPAGPEDNGNGPVNPEQGNDNDPVNLEDSGNNGAVNPEQAPVNDEDNGGNDPVNPEQDNNNGPANPGQDSTNGSGNSDQIDNNPPTPEENAGDGNSNGNDPADPSRRTSILGDERTRASPGGTSQPTGANGNVNGNSPGANVNGGGTGNSNNNNNNNNNNNNGNAPNGGDGSNGDANQGPSRRTSLLGDERTRAGQAAPTGGSSPDNGIAGDTSNNGGAIVSQQVDDGGAGSPRRTSILGDVRSRTTLNGEVLNFEGSGVRRAVAGNLALPLMMVGLVFNL
# Columns and labels:
# Assay in all cases: glycan array binding signal (z-score within array); higher = stronger binding
# Details in all cases: glycan notation: IUPAC condensed, linker removed
# Fuc(a1-3)GlcNAc = biological target: Fuc(a1-3)GlcNAc
# Procedure, shortened: (§1)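 Glycan array binding is given as a within-array Z-score, which can be read as non-binding when negative. The arrays, 3228 of them, came from the Consortium for Functional Glycomics database and were retained only where the protein sequence was available. Z-scores were averaged across arrays of the same protein sequence at different concentrations or buffers and across linkers.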
# [1] = biological target: Fuc(a1-3)[Gal(b1-4)]Glc6S
# Procedure, shortened: as §1
# [2] = biological target: Fuc(a1-3)[Gal(b1-4)]GlcNAc
# Procedure, shortened: as §1
# [3] = biological target: Fuc(a1-3)[Gal(b1-4)]GlcNAc(b1-2)Man
# Procedure, shortened: as §1
# [4] = biological target: Fuc(a1-3)[Gal(b1-4)]GlcNAc(b1-2)Man(a1-3)[Fuc(a1-3)[Gal(b1-4)]GlcNAc(b1-2)Man(a1-6)]Man(b1-4)GlcNAc(b1-4)GlcNAc
# Procedure, shortened: as §1
# [5] = biological target: Fuc(a1-3)[Gal(b1-4)]GlcNAc(b1-2)Man(a1-3)[Fuc(a1-3)[Gal(b1-4)]GlcNAc(b1-2)Man(a1-6)]Man(b1-4)GlcNAc(b1-4)[Fuc(a1-6)]GlcNAc
# Procedure, shortened: as §1
# [6] = biological target: Fuc(a1-3)[Gal(b1-4)]GlcNAc(b1-3)Gal(b1-3)[Fuc(a1-4)]GlcNAc
# Procedure, shortened: as §1
# [7] = biological target: Fuc(a1-3)[Gal(b1-4)]GlcNAc(b1-3)Gal(b1-4)[Fuc(a1-3)]GlcNAc
# Procedure, shortened: as §1
# [8] = biological target: Fuc(a1-3)[Gal(b1-4)]GlcNAc(b1-3)Gal(b1-4)[Fuc(a1-3)]GlcNAc(b1-3)Gal(b1-4)[Fuc(a1-3)]GlcNAc
# Procedure, shortened: as §1
# [9] = biological target: Fuc(a1-3)[Gal(b1-4)]GlcNAc(b1-3)GalNAc
# Procedure, shortened: as §1
# [10] = biological target: Fuc(a1-3)[Gal(b1-4)]GlcNAc(b1-6)GalNAc
# Procedure, shortened: as §1
# [11] = biological target: Fuc(a1-3)[Gal(b1-4)]GlcNAc(b1-6)[Gal(b1-3)GlcNAc(b1-3)]Gal(b1-4)Glc
# Procedure, shortened: as §1
# [12] = biological target: Fuc(a1-3)[Gal(b1-4)]GlcNAc6S
# Procedure, shortened: as §1
# [13] = biological target: Fuc(a1-3)[Gal3S(b1-4)]Glc
# Procedure, shortened: as §1
# [14] = biological target: Fuc(a1-3)[Gal3S(b1-4)]GlcNAc
# Procedure, shortened: as §1
# [15] = biological target: Fuc(a1-3)[Gal3S(b1-4)]GlcNAc6S
# Procedure, shortened: as §1
# [16] = biological target: Fuc(a1-3)[GalNAc(b1-4)]GlcNAc
# Procedure, shortened: as §1
# [17] = biological target: Fuc(a1-3)[GalNAc(b1-4)]GlcNAc6S
# Procedure, shortened: as §1
# Fuc(a1-4)GlcNAc = biological target: Fuc(a1-4)GlcNAc
# Procedure, shortened: as §1
# Fuc(b1-3)GlcNAc = biological target: Fuc(b1-3)GlcNAc
# Procedure, shortened: as §1
# Gal(a1-2)Gal = biological target: Gal(a1-2)Gal
# Procedure, shortened: as §1
# Gal(a1-3)Gal = biological target: Gal(a1-3)Gal
# Procedure, shortened: as §1
# Gal(a1-3)Gal(b1-3)GlcNAc = biological target: Gal(a1-3)Gal(b1-3)GlcNAc
# Procedure, shortened: as §1
# [18] = biological target: Gal(a1-3)Gal(b1-3)GlcNAc(b1-2)Man
# Procedure, shortened: as §1
# [19] = biological target: Gal(a1-3)Gal(b1-3)GlcNAc(b1-2)Man(a1-3)[Gal(a1-3)Gal(b1-3)GlcNAc(b1-2)Man(a1-6)]Man(b1-4)GlcNAc(b1-4)GlcNAc
# Procedure, shortened: as §1
# [20] = biological target: Gal(a1-3)Gal(b1-3)GlcNAc(b1-3)GalNAc
# Procedure, shortened: as §1
# [21] = biological target: Gal(a1-3)Gal(b1-3)GlcNAc(b1-6)GalNAc
# Procedure, shortened: as §1
# [22] = biological target: Gal(a1-3)Gal(b1-3)[Fuc(a1-4)]GlcNAc(b1-2)Man(a1-3)[Gal(a1-3)Gal(b1-3)[Fuc(a1-4)]GlcNAc(b1-2)Man(a1-6)]Man(b1-4)GlcNAc(b1-4)GlcNAc
# Procedure, shortened: as §1
# Gal(a1-3)Gal(b1-4)Glc = biological target: Gal(a1-3)Gal(b1-4)Glc
# Procedure, shortened: as §1
# Gal(a1-3)Gal(b1-4)GlcNAc = biological target: Gal(a1-3)Gal(b1-4)GlcNAc
# Procedure, shortened: as §1
# [23] = biological target: Gal(a1-3)Gal(b1-4)GlcNAc(b1-2)Man
# Procedure, shortened: as §1
# [24] = biological target: Gal(a1-3)Gal(b1-4)GlcNAc(b1-2)Man(a1-3)[Gal(a1-3)Gal(b1-4)GlcNAc(b1-2)Man(a1-6)]Man(b1-4)GlcNAc(b1-4)GlcNAc
# Procedure, shortened: as §1
# [25] = biological target: Gal(a1-3)Gal(b1-4)GlcNAc(b1-3)GalNAc
# Procedure, shortened: as §1
# [26] = biological target: Gal(a1-3)Gal(b1-4)GlcNAc(b1-6)GalNAc
# Procedure, shortened: as §1
# [27] = biological target: Gal(a1-3)Gal(b1-4)[Fuc(a1-3)]GlcNAc
# Procedure, shortened: as §1
# [28] = biological target: Gal(a1-3)Gal(b1-4)[Fuc(a1-3)]GlcNAc(b1-2)Man(a1-3)[Gal(a1-3)Gal(b1-4)[Fuc(a1-3)]GlcNAc(b1-2)Man(a1-6)]Man(b1-4)GlcNAc(b1-4)GlcNAc
# Procedure, shortened: as §1
# Gal(a1-3)GalNAc = biological target: Gal(a1-3)GalNAc
# Procedure, shortened: as §1
# [29] = biological target: Gal(a1-3)[Gal(a1-4)]Gal(b1-4)GlcNAc
# Procedure, shortened: as §1
# [30] = biological target: Gal(a1-4)Gal(b1-3)GlcNAc(b1-2)Man(a1-3)[Gal(a1-4)Gal(b1-3)GlcNAc(b1-2)Man(a1-6)]Man(b1-4)GlcNAc(b1-4)GlcNAc
# Procedure, shortened: as §1
# Gal(a1-4)Gal(b1-4)Glc = biological target: Gal(a1-4)Gal(b1-4)Glc
# Procedure, shortened: as §1
# Gal(a1-4)Gal(b1-4)GlcNAc = biological target: Gal(a1-4)Gal(b1-4)GlcNAc
# Procedure, shortened: as §1
# [31] = biological target: Gal(a1-4)Gal(b1-4)GlcNAc(b1-2)Man(a1-3)[Gal(a1-4)Gal(b1-4)GlcNAc(b1-2)Man(a1-6)]Man(b1-4)GlcNAc(b1-4)GlcNAc
# Procedure, shortened: as §1
# [32] = biological target: Gal(a1-4)Gal(b1-4)GlcNAc(b1-3)Gal(b1-4)Glc
# Procedure, shortened: as §1
# Gal(a1-4)GlcNAc = biological target: Gal(a1-4)GlcNAc
# Procedure, shortened: as §1
# Gal(a1-6)Glc = biological target: Gal(a1-6)Glc
# Procedure, shortened: as §1
binder,measurement,setting,value
B1,glycan array binding signal (z-score),Fuc(a1-3)GlcNAc,-0.335
same,glycan array binding signal (z-score),[1],-0.114
same,glycan array binding signal (z-score),[2],-0.256
same,glycan array binding signal (z-score),[3],-0.139
same,glycan array binding signal (z-score),[4],-0.195
same,glycan array binding signal (z-score),[5],-0.206
same,glycan array binding signal (z-score),[6],-0.28
same,glycan array binding signal (z-score),[7],-0.202
same,glycan array binding signal (z-score),[8],-0.193
same,glycan array binding signal (z-score),[9],-0.22
same,glycan array binding signal (z-score),[10],-0.133
same,glycan array binding signal (z-score),[11],-0.228
same,glycan array binding signal (z-score),[12],-0.223
same,glycan array binding signal (z-score),[13],-0.243
same,glycan array binding signal (z-score),[14],-0.257
same,glycan array binding signal (z-score),[15],-0.177
same,glycan array binding signal (z-score),[16],-0.269
same,glycan array binding signal (z-score),[17],-0.288
same,glycan array binding signal (z-score),Fuc(a1-4)GlcNAc,-0.253
same,glycan array binding signal (z-score),Fuc(b1-3)GlcNAc,-0.291
same,glycan array binding signal (z-score),Gal(a1-2)Gal,-0.244
same,glycan array binding signal (z-score),Gal(a1-3)Gal,0.021
same,glycan array binding signal (z-score),Gal(a1-3)Gal(b1-3)GlcNAc,0.061
same,glycan array binding signal (z-score),[18],0.532
same,glycan array binding signal (z-score),[19],-0.031
same,glycan array binding signal (z-score),[20],0.048
same,glycan array binding signal (z-score),[21],0.287
same,glycan array binding signal (z-score),[22],-0.172
same,glycan array binding signal (z-score),Gal(a1-3)Gal(b1-4)Glc,-0.071
same,glycan array binding signal (z-score),Gal(a1-3)Gal(b1-4)GlcNAc,0.324
same,glycan array binding signal (z-score),[23],0.372
same,glycan array binding signal (z-score),[24],1.02
same,glycan array binding signal (z-score),[25],0.152
same,glycan array binding signal (z-score),[26],0.115
same,glycan array binding signal (z-score),[27],-0.215
same,glycan array binding signal (z-score),[28],0.134
same,glycan array binding signal (z-score),Gal(a1-3)GalNAc,0.853
same,glycan array binding signal (z-score),[29],-0.16
same,glycan array binding signal (z-score),[30],3.35
same,glycan array binding signal (z-score),Gal(a1-4)Gal(b1-4)Glc,-0.025
same,glycan array binding signal (z-score),Gal(a1-4)Gal(b1-4)GlcNAc,0.512
same,glycan array binding signal (z-score),[31],1.46
same,glycan array binding signal (z-score),[32],1.2
same,glycan array binding signal (z-score),Gal(a1-4)GlcNAc,2.31
same,glycan array binding signal (z-score),Gal(a1-6)Glc,1.41
